Hit rate of the full screen: of about 48,000 compounds, about 550 (1.1%) were called active. Another 4% or so got no clear call; they are omitted. Rule as the data show it: active = potency below about 15 µM; inconclusive = mostly about 16 µM to 33 µM; inactive = weaker than that. The list shows a part of the results. Bounds are passed on as bounds.

For 91 compounds, Potency results are on record in PubChem BioAssay AID360 (National Center for Advancing Translational Sciences (NCATS), 2006).
Potency is read from the fitted curve at half-maximal effect.

The assay concerns the target Lysosomal acid glucosylceramidase (Homo sapiens) (UniProt P04062). As to the kind of experiment: Glucocerebrosidase.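 Also: the screen sought inhibitors.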 Conditions: purified enzyme, resorufin glucoside fluorescence (screen aimed at inhibitors), 20 min. In outline: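 Normal human glucocerebrosidase (0.2 nM final) was assayed with resorufin β-D-glucopyranoside (30 uM final) in 50mM citric acid/KH2PO4, 10mM sodium taurocholate, 0.01% tween-20, pH 5.9. Compounds were titrated; fluorescence (Ex 548, Em 600) read after 20 min at RT.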
Chain of UniProt P04062 (P04062 whole entry, looked up): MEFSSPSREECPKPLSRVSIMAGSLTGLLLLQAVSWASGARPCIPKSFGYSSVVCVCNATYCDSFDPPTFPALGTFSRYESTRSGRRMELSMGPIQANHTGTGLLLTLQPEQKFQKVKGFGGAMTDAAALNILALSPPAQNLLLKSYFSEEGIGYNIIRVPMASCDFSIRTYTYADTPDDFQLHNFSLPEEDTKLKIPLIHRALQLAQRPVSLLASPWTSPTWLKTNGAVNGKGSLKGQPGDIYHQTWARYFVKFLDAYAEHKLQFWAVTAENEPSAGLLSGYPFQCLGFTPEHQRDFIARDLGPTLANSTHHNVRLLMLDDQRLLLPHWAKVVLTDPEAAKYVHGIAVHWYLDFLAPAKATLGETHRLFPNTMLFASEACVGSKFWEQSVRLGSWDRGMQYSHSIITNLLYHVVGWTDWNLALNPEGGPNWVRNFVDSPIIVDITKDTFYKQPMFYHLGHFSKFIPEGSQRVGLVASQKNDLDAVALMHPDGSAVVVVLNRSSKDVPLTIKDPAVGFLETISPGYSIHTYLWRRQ
For the compound `C=CCNC(=O)c1ccncc1`, the Potency was inactive: > 76.9 µM.
Then `Cc1cc(C)cc(NS(=O)(=O)c2ccc3[nH]c(=O)[nH]c3c2)c1`, with inactive: > 15.4 µM; and `Nc1nnc(CC(=O)N2CCCCC2)s1`, with inactive: > 76.9 µM; and `N#Cc1c(NC(=O)c2cc(-n3cnnc3)ccc2Cl)sc2c1CCCC2`, with inactive: > 76.9 µM.
For `O=C(Nc1nc2n(n1)C(c1ccccc1)C=C(c1ccccc1)N2)c1ccco1` (stereo unspecified) the value was inactive: > 76.9 µM; for `COCCNC(=O)C(OC(=O)c1ccco1)c1ccccc1OC` (stereo unspecified), inactive: > 76.9 µM; for `c1coc(-c2nc(-c3ccco3)c(-c3ccco3)nc2-c2ccco2)c1`, inactive: > 15.4 µM.
With `O=S(=O)(c1ccc(C2=CSC3=NCCN23)cc1)N1CCOCC1`, the Potency was inactive: > 76.9 µM.
For `CCOC(=O)c1cc2sc(C)cc2n1C(C)C(=O)OCC` (stereo unspecified) the value was inactive: > 76.9 µM; for `Cc1noc(C)c1COc1cccc(C(=O)Oc2ccc3c(c2)OCO3)c1`, inactive: > 76.9 µM.
For `COc1ccccc1S(=O)(=O)Cc1ccc(C(=O)NC2CCCCC2)o1` the value was inactive: > 76.9 µM.
For `CC(C)CCn1c(=O)c2ccccc2n2c(COC(=O)c3ccc(S(=O)(=O)N(C)C)cc3)nnc12` the value was inactive: > 76.9 µM; for `Cn1c(=O)n(C)c2cc(S(=O)(=O)NCCc3ccccc3)ccc21`, inactive: > 76.9 µM.
As to `O=C(CSc1nnc(-c2cccs2)n1Cc1ccco1)c1ccc2c(c1)OCO2`, the Potency is inactive: > 76.9 µM.
Turning to `O=c1[nH]c(CN2CCN(Cc3ccccc3)CC2)nc2sc3c(c12)CCC3`, the Potency is inactive: > 76.9 µM.
For `Cc1ccn2c(NC3CCCCC3)c(C)nc2c1`, the Potency is inactive: > 76.9 µM.
For `CCOc1ccccc1C1NC(=O)NC(C)=C1C(=O)OC1CCCC1C` (stereo unspecified) the value was “inactive”; for `Cc1cc2nc(SC(C)C(=O)O)[nH]c2cc1C` (stereo unspecified), inactive: > 76.9 µM; for `CN(C)c1ccc(CN(C(=O)C2COc3ccccc3O2)C2CCS(=O)(=O)C2)cc1` (stereo unspecified), inactive: > 76.9 µM.
For `COc1cc(NS(=O)(=O)c2cccc3nsnc23)c(C(=O)O)cc1OC` the value was inactive: > 76.9 µM.
Then `CC(C)(C)NC(=O)C1N(c2cccnc2)C(=O)C2C(C(=O)Nc3ccccc3F)C3(C)C=CC21O3` (stereo unspecified), with inactive: > 76.9 µM.
In the case of `CC(C)N1C(=O)c2ccc(C(=O)O)cc2C1=O`, the Potency is inactive: > 76.9 µM.
As for `CCOC(=O)C(CCSC)NC(=O)CN` (stereo unspecified), the Potency was inactive: > 76.9 µM.
Then `COC(=O)Nc1sc2c(c1C(=O)NCc1ccco1)CCCC2`, with inactive: > 76.9 µM; and `CCOC(=O)C1CCN(C(=O)CCc2nc3ccccc3[nH]2)CC1`, with inactive: > 76.9 µM.
For `Cc1ccc(S(=O)(=O)Nc2ccc3oc(=O)sc3c2)c(C)c1` the value was inactive: > 76.9 µM; for `CCCCOC(=O)CSc1nnc(-c2ccc(Cl)cc2Cl)o1`, inactive: > 76.9 µM; for `Cc1cc(=O)[nH]c(SCC(=O)Nc2nnc(CC(C)C)s2)n1`, inactive: > 76.9 µM.
For `COc1ccc(NC(=O)c2oc3ccc(S(=O)(=O)N4CCC5(CC4)OCCO5)cc3c2C)cc1`, the Potency is inactive: > 76.9 µM.
For `CC(CCO)Nc1nc2c(c(=O)n(C)c(=O)n2C)n1Cc1cccc(Br)c1` (stereo unspecified) the value was inactive: > 76.9 µM; for `Cc1nc2c(C(=O)NCc3ccc4c(c3)OCO4)c[nH]n2c(=O)c1Cl`, inactive: > 76.9 µM.
Then `O=C(CCN1C(=O)C2C3C=CC(C3)C2C1=O)Nc1ccc(F)cc1` (stereo unspecified), with inactive: > 76.9 µM; and `COc1ccc(OC)c(NC(=O)CS(=O)(=O)c2ccccc2)c1`, with inactive: > 76.9 µM; and `COc1nc(NCc2ccco2)nc(N2CCC(C)CC2)n1`, with inactive: > 76.9 µM.
For `CN(C)CCSc1nc(N)c2c3c(sc2n1)CN(C)CC3` the value was inactive: > 76.9 µM.
With `O=C1CN(C(=O)COC(=O)C2=COCCO2)c2ccccc2N1`, the Potency is inactive: > 76.9 µM.
Regarding `COc1ccc(-n2cc(-c3ccccc3)c3c(N4CCN(CCO)CC4)ncnc32)cc1`, the Potency entry was “inactive”.
Then `CCN(CC)c1ccc(C2C3CCCCC3(O)CCN2CC(=O)N2CCCCC2)cc1` (stereo unspecified), with inactive: > 76.9 µM; and `CCCN(c1nc(C)cc(OC)n1)S(=O)(=O)c1ccccc1`, with inactive: > 76.9 µM.
For `O=C(CSc1nc2ccccc2o1)NCC(=O)c1ccccc1` the value was inactive: > 76.9 µM; for `CC(C)C(=O)Nc1ccc(NC(=O)c2cccc(F)c2)cn1`, inactive: > 76.9 µM; for `COc1cc(C)c(N)cc1C(C)C`, inactive: > 76.9 µM.
Consider `O=C(CC(C(=O)N1CCc2ccccc21)n1ccnc1)N1CCc2ccccc2C1` (stereo unspecified), for which the Potency was inactive: > 76.9 µM.
`O=C(O)CCCNS(=O)(=O)c1ccc(Br)s1`: the Potency was inactive: > 76.9 µM.
For `COc1cccc2cc(C(=O)N(C)C)c(=O)oc12` the value was inactive: > 76.9 µM; for `Cc1csc2nc(CNC(=O)c3ccco3)cn12`, inactive: > 76.9 µM.
Then `CCCn1c2ccccc2c2nc3ccccc3nc21`, with inactive: > 76.9 µM; and `CCOC(=O)/C(C#N)=C1/SC(CC)C(=O)N1c1ccc(C)cc1` (stereo unspecified), with inactive: > 76.9 µM.
For `c1n[nH]c(NC2=NCCC2)n1` the value was inactive: > 76.9 µM; for `COc1cc2[nH]c(=O)n(CCCC(=O)NCCc3ccccc3)c(=O)c2cc1OC`, inactive: > 76.9 µM; for `CCc1nc(N)c(C#N)c(-c2ccc(OC)c(OC)c2)c1C`, inactive: > 76.9 µM.
In the case of `CC(C)C[C@H](NC(=O)Nc1cccc(C(F)(F)F)c1)C(=O)O`, the Potency is inactive: > 76.9 µM.
For the compound `Cc1c2c(nc3c(C(=O)NC4CCCC4)cnn13)CCCC2`, the Potency is inactive: > 76.9 µM.
Regarding `O=C(NCc1ccccc1)N[C@@H](Cc1c[nH]c2ccccc12)C(=O)O`, the Potency was inactive: > 76.9 µM.
Regarding `CCNS(=O)(=O)c1ccc(NC(=O)Cn2nc(C(F)(F)F)cc2C)cc1`, the Potency is inactive: > 76.9 µM.
Regarding `CCOC(=O)c1[nH]c(C)c(C(=O)N2CCN(c3ccc(F)cc3)CC2)c1C`, the Potency is inactive: > 76.9 µM.
For `COc1cccc(NC(=O)C2CCCN2C(=O)Nc2ccccc2F)c1` (stereo unspecified) the value was inactive: > 76.9 µM; for `CCn1nc(NS(=O)(=O)c2ccccc2)c2cc3cccc(C)c3nc21`, inactive: > 76.9 µM; for `COc1ccc(C(=O)N2CCN(c3nc4cc(C)ccc4cc3C#N)CC2)c(OC)c1`, inactive: > 76.9 µM.
Then `CC1=NOC2(C1)N(C)c1ccccc1C2(C)C` (stereo unspecified), with inactive: > 76.9 µM; and `N#CCCNCC1(c2ccccc2)CCCC1`, with inactive: > 76.9 µM; and `Cn1c(=O)[nH]c(=O)c2c1nc(CN1CCN(c3ccc(F)cc3)CC1)n2CCN1CCOCC1`, with inactive: > 76.9 µM.
Then `COc1ccc(N2CCN(C(=O)C3CCN(S(=O)(=O)N4CCOCC4)CC3)CC2)cc1`, with inactive: > 76.9 µM; and `CCCS(=O)(=O)N1CCCC(C(=O)NCCCN2CCN(c3ccc(F)cc3)CC2)C1` (stereo unspecified), with inactive: > 76.9 µM.
On to `O=c1[nH]c(-c2cccnc2)nc2ccccc12`, for which the Potency was inactive: > 76.9 µM.
For the compound `COc1cccc(N2CCN(C(=O)NC3CCCCC3)CC2)c1`, the Potency was inactive: > 76.9 µM.
Then `CC(=O)NCCC(=O)Nc1ccc(C)c(F)c1`, with inactive: > 76.9 µM; and `COc1cc(-c2nc(-c3ccc(-c4ccccc4)nc3OC)no2)cc(OC)c1OC`, with inactive: > 76.9 µM.
For `Cc1cc(C)cc(OCC(=O)Nc2ccc(N3CCN(S(C)(=O)=O)CC3)cc2)c1` the value was inactive: > 76.9 µM; for `COC(=O)CSc1nnc(CNC(=O)c2cc(OC)c(OC)c(OC)c2)n1C`, inactive: > 76.9 µM; for `CC(C)OCCCNC(=O)Cn1ncc2c(=O)oc3ccccc3c21`, inactive: > 76.9 µM.
Then `O=C(OCc1c(Cl)cccc1Cl)c1cccnc1`, with inactive: > 76.9 µM; and `Cc1cc(NC(=O)CSc2ncn(-c3ccccc3)n2)no1`, with inactive: > 76.9 µM.
For `C=C(C)COc1ccc(-c2[nH]ncc2Oc2cccc(OC)c2)c(O)c1`, the Potency was inactive: > 76.9 µM.
As for `N#Cc1cccc2cnccc12`, the Potency was inactive: > 76.9 µM.
Take `COc1ccc(C2N(C(=O)CN3CCOCC3)CCN2S(=O)(=O)c2ccccc2)cc1` (stereo unspecified): the Potency was inactive: > 76.9 µM.
For the compound `Cc1nn2c3ccccc3nc2n(C)c1=O`, the Potency was inactive: > 76.9 µM.
Then `Cc1cnc(NC(=O)CSc2nc3ccccc3c(=O)[nH]2)s1`, with inactive: > 76.9 µM.
Then `CC1Cc2nc(SCC(=O)Nc3ccccc3F)n(C)c(=O)c2S1` (stereo unspecified), with inactive: > 76.9 µM.
As to `COc1ccc2cc(C#N)c(N3CCN(Cc4nnnn4CCC(C)C)CC3)nc2c1`, the Potency is inactive: > 76.9 µM.
Then `COC(=O)c1cccc(S(=O)(=O)N2CCN(c3nc4ccccc4s3)CC2)c1`, with inactive: > 76.9 µM; and `Cn1cnnc1SCC(=O)c1ccco1`, with inactive: > 76.9 µM.
For `COC(=O)CSc1nnc(-c2ccc(NS(=O)(=O)c3ccccc3)cc2)o1` the value was inactive: > 76.9 µM.
Then `CCOC(=O)C1CCN(C(=O)CSc2cc(=O)n(C)c3ccccc23)CC1`, with inactive: > 76.9 µM; and `Cc1ccc(OCc2nnc(SCc3nc4ccccc4[nH]3)n2Cc2ccco2)cc1`, with inactive: > 76.9 µM; and `COc1ccc(N2CCN(C(=O)CCS(=O)(=O)c3cccc4nsnc34)CC2)cc1`, with inactive: > 76.9 µM.
Regarding `CC(=O)Nc1ccc(NC(=O)CSC2=NCCS2)cc1`, the Potency is inactive: > 76.9 µM.
Then `CCOCCCN(C(=O)CNC(=O)c1ccco1)C(C(=O)NC1CCCC1)c1ccccc1C` (stereo unspecified), with inactive: > 76.9 µM.
For `CCOc1ncccc1C(=O)OCc1nnc(-c2ccccc2)o1` the value was inactive: > 76.9 µM; for `O=C(COC(=O)CCCc1c[nH]c2ccccc12)Nc1ccc2c(c1)OCO2`, inactive: > 76.9 µM.
For `CC1N=C2c3ccccc3N=C(SCc3cc(=O)n4ccccc4n3)N2C1=O` (stereo unspecified) the value was inactive: > 76.9 µM.
